The results in this text go back to patent US20200407452A1 (published 2020).

Test [1] has as its target T1, native human MET on living cells (human, UniProt P08581). Kind of test: cell-based or functional assay.
The target in test [2] is T1, native human MET on living cells. Description: cell-based or functional assay. This is another data set of the same source.
T1 sequence (P08581 25-1390): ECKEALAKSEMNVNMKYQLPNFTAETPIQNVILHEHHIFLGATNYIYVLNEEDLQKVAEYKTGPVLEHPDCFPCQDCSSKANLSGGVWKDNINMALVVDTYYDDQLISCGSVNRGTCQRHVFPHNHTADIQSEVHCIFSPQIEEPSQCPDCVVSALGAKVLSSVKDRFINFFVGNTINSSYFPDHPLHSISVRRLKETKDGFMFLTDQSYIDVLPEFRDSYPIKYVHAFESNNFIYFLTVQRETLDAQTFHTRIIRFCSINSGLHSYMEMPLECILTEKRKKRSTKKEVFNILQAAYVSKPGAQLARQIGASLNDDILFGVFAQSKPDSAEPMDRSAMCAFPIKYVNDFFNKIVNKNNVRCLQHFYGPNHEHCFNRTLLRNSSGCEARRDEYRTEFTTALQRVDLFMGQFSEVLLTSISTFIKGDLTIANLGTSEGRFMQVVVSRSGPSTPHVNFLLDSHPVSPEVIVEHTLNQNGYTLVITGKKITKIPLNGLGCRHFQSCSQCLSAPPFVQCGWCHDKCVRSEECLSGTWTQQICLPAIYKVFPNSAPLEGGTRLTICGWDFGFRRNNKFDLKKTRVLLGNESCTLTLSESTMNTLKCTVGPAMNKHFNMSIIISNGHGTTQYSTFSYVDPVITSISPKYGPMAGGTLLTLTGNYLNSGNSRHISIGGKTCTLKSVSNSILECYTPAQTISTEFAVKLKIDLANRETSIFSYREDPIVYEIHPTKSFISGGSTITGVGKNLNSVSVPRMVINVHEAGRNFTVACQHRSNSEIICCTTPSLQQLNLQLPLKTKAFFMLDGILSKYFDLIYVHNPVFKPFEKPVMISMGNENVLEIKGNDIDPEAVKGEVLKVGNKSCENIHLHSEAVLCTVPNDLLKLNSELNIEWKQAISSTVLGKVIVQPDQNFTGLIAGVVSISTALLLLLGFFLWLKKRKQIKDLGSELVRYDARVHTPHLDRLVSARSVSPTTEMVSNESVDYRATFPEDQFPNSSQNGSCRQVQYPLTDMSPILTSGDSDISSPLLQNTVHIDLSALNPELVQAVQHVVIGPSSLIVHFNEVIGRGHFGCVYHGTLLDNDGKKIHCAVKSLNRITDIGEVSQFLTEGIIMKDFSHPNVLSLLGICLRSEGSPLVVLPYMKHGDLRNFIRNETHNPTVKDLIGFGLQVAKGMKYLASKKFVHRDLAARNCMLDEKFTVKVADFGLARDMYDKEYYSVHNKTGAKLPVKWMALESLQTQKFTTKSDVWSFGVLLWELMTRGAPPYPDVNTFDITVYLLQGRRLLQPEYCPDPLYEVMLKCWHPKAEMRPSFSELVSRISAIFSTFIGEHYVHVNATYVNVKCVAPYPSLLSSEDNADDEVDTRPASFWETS

B1: recombinant human HGF (R&D Systems) (ligand)
chain: not shown
modifications: biotinylated at the N-terminus using NHS-LC-biotin (in the competition ELISA only)
Take B1: in test [1], the “phospho-MET ELISA EMAX, A549 cells” value was 100 % HGF activity. In test [2], the “protection from staurosporine-induced apoptosis EC50, MCF10A cells” value is 4.57 nM and the “protection from staurosporine-induced apoptosis EMAX, MCF10A cells” value is 59.3%.
